{
  "source": "the supplement of paper PMC8728848",
  "binders": {"B1": {"name": "Mg3lysM (Mycosphaerella graminicola) (protein)", "chain": "APQNPPTSCSAAPQPTGTGSPGTVCGSTTFTNYTVKAGDTLGAIAKQYNSGVCDIAKVNGIDNPDYIKPDQVLSIPANCVTPDNTSCVKPVPVITNTCVLGVGSTYTVKSGDSFSAIATSFNITLASLEARNPQIPNYDLIFPGQVINTPLCPNSVCDSIGTYVIESGDIFYNLAQSNNVTVGQLESLNVNVNVTDIHPGDIIILPHNCHNITASA"}},
  "test_in_all_cases": "glycan array binding signal (z-score within array); higher = stronger binding",
  "settings_in_all_cases": "glycan notation: IUPAC condensed, linker removed",
  "key": {"[1]": {"target": "Fuc(a1-2)Gal", "outline": "(§1)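 The binding signal is a Z-score computed within each array. Data were drawn from 3228 arrays in the Consortium for Functional Glycomics database, restricted to those with a known protein sequence. Scores were averaged over arrays of the same protein sequence at different concentrations or buffers, and over linkers, and negative values can be taken as non-binding.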"}, "[2]": {"target": "Fuc(a1-2)Gal(b1-3)GalNAc", "outline": "as §1"}, "[3]": {"target": "Fuc(a1-2)Gal(b1-3)GalNAc(a1-3)[Fuc(a1-2)]Gal(b1-4)Glc", "outline": "as §1"}, "[4]": {"target": "Fuc(a1-2)Gal(b1-3)GalNAc(a1-3)[Fuc(a1-2)]Gal(b1-4)GlcNAc", "outline": "as §1"}, "[5]": {"target": "Fuc(a1-2)Gal(b1-3)GalNAc(b1-3)Gal", "outline": "as §1"}, "[6]": {"target": "Fuc(a1-2)Gal(b1-3)GalNAc(b1-3)Gal(a1-4)Gal(b1-4)Glc", "outline": "as §1"}, "[7]": {"target": "Fuc(a1-2)Gal(b1-3)GalNAc(b1-4)[Neu5Ac(a2-3)]Gal(b1-4)Glc", "outline": "as §1"}, "[8]": {"target": "Fuc(a1-2)Gal(b1-3)GlcNAc", "outline": "as §1"}, "[9]": {"target": "Fuc(a1-2)Gal(b1-3)GlcNAc(b1-2)Man(a1-3)[Fuc(a1-2)Gal(b1-3)GlcNAc(b1-2)Man(a1-6)]Man(b1-4)GlcNAc(b1-4)GlcNAc", "outline": "as §1"}, "[10]": {"target": "Fuc(a1-2)Gal(b1-3)GlcNAc(b1-2)Man(a1-3)[Fuc(a1-2)Gal(b1-3)GlcNAc(b1-2)Man(a1-6)]Man(b1-4)GlcNAc(b1-4)[Fuc(a1-6)]GlcNAc", "outline": "as §1"}, "[11]": {"target": "Fuc(a1-2)Gal(b1-3)GlcNAc(b1-3)Gal(b1-4)Glc", "outline": "as §1"}, "[12]": {"target": "Fuc(a1-2)Gal(b1-3)GlcNAc(b1-3)GalNAc", "outline": "as §1"}, "[13]": {"target": "Fuc(a1-2)Gal(b1-3)GlcNAc(b1-3)[Fuc(a1-2)Gal(b1-3)GlcNAc(b1-6)]GalNAc", "outline": "as §1"}, "[14]": {"target": "Fuc(a1-2)Gal(b1-3)GlcNAc(b1-3)[Gal(b1-4)GlcNAc(b1-6)]Gal(b1-4)Glc", "outline": "as §1"}, "[15]": {"target": "Fuc(a1-2)Gal(b1-3)GlcNAc(b1-3)[Neu5Ac(a2-6)Gal(b1-4)GlcNAc(b1-6)]Gal(b1-4)Glc", "outline": "as §1"}, "[16]": {"target": "Fuc(a1-2)Gal(b1-3)GlcNAc6S", "outline": "as §1"}, "[17]": {"target": "Fuc(a1-2)Gal(b1-3)[Fuc(a1-4)]GlcNAc", "outline": "as §1"}, "[18]": {"target": "Fuc(a1-2)Gal(b1-3)[Fuc(a1-4)]GlcNAc(b1-2)Man(a1-3)[Fuc(a1-2)Gal(b1-3)[Fuc(a1-4)]GlcNAc(b1-2)Man(a1-3)]Man(b1-4)GlcNAc(b1-4)GlcNAc", "outline": "as §1"}, "[19]": {"target": "Fuc(a1-2)Gal(b1-3)[Fuc(a1-4)]GlcNAc(b1-2)Man(a1-3)[Fuc(a1-2)Gal(b1-3)[Fuc(a1-4)]GlcNAc(b1-2)Man(a1-6)]Man(b1-4)GlcNAc(b1-4)[Fuc(a1-6)]GlcNAc(b1-4)[Fuc(a1-6)]GlcNAc", "outline": "as §1"}, "[20]": {"target": "Fuc(a1-2)Gal(b1-3)[Fuc(a1-4)]GlcNAc(b1-3)[Fuc(a1-3)[Gal(b1-4)]GlcNAc(b1-6)]Gal(b1-4)Glc", "outline": "as §1"}, "[21]": {"target": "Fuc(a1-2)Gal(b1-3)[Fuc(a1-4)]GlcNAc(b1-3)[Gal(b1-4)GlcNAc(b1-6)]Gal(b1-4)Glc", "outline": "as §1"}, "[22]": {"target": "Fuc(a1-2)Gal(b1-4)Glc", "outline": "as §1"}, "[23]": {"target": "Fuc(a1-2)Gal(b1-4)Glc6S", "outline": "as §1"}, "[24]": {"target": "Fuc(a1-2)Gal(b1-4)GlcNAc", "outline": "as §1"}, "[25]": {"target": "Fuc(a1-2)Gal(b1-4)GlcNAc(b1-2)Man", "outline": "as §1"}, "[26]": {"target": "Fuc(a1-2)Gal(b1-4)GlcNAc(b1-2)Man(a1-3)[Fuc(a1-2)Gal(b1-4)GlcNAc(b1-2)Man(a1-6)]Man(b1-4)GlcNAc(b1-4)GlcNAc", "outline": "as §1"}, "[27]": {"target": "Fuc(a1-2)Gal(b1-4)GlcNAc(b1-2)Man(a1-3)[Fuc(a1-2)Gal(b1-4)GlcNAc(b1-2)Man(a1-6)]Man(b1-4)GlcNAc(b1-4)[Fuc(a1-6)]GlcNAc", "outline": "as §1"}, "[28]": {"target": "Fuc(a1-2)Gal(b1-4)GlcNAc(b1-2)[Fuc(a1-2)Gal(b1-4)GlcNAc(b1-4)]Man(a1-3)[Fuc(a1-2)Gal(b1-4)GlcNAc(b1-2)Man(a1-6)]Man(b1-4)GlcNAc(b1-4)GlcNAc", "outline": "as §1"}, "[29]": {"target": "Fuc(a1-2)Gal(b1-4)GlcNAc(b1-3)Gal(b1-4)GlcNAc", "outline": "as §1"}, "[30]": {"target": "Fuc(a1-2)Gal(b1-4)GlcNAc(b1-3)Gal(b1-4)GlcNAc(b1-2)Man(a1-3)[Fuc(a1-2)Gal(b1-4)GlcNAc(b1-3)Gal(b1-4)GlcNAc(b1-2)Man(a1-6)]Man(b1-4)GlcNAc(b1-4)GlcNAc", "outline": "as §1"}},
  "note": "Some of the results follow.",
  "data": [
    {"binder": "B1", "values": [
      {"measurement": "glycan array binding signal (z-score)", "setting": "[1]", "result": -0.076},
      {"measurement": "glycan array binding signal (z-score)", "setting": "[2]", "result": -0.076},
      {"measurement": "glycan array binding signal (z-score)", "setting": "[3]", "result": -0.085},
      {"measurement": "glycan array binding signal (z-score)", "setting": "[4]", "result": -0.062},
      {"measurement": "glycan array binding signal (z-score)", "setting": "[5]", "result": -0.051},
      {"measurement": "glycan array binding signal (z-score)", "setting": "[6]", "result": -0.196},
      {"measurement": "glycan array binding signal (z-score)", "setting": "[7]", "result": -0.064},
      {"measurement": "glycan array binding signal (z-score)", "setting": "[8]", "result": -0.055},
      {"measurement": "glycan array binding signal (z-score)", "setting": "[9]", "result": 0.043},
      {"measurement": "glycan array binding signal (z-score)", "setting": "[10]", "result": -0.039},
      {"measurement": "glycan array binding signal (z-score)", "setting": "[11]", "result": -0.042},
      {"measurement": "glycan array binding signal (z-score)", "setting": "[12]", "result": -0.131},
      {"measurement": "glycan array binding signal (z-score)", "setting": "[13]", "result": 0.259},
      {"measurement": "glycan array binding signal (z-score)", "setting": "[14]", "result": -0.176},
      {"measurement": "glycan array binding signal (z-score)", "setting": "[15]", "result": -0.182},
      {"measurement": "glycan array binding signal (z-score)", "setting": "[16]", "result": -0.052},
      {"measurement": "glycan array binding signal (z-score)", "setting": "[17]", "result": -0.115},
      {"measurement": "glycan array binding signal (z-score)", "setting": "[18]", "result": -0.041},
      {"measurement": "glycan array binding signal (z-score)", "setting": "[19]", "result": -0.09},
      {"measurement": "glycan array binding signal (z-score)", "setting": "[20]", "result": -0.105},
      {"measurement": "glycan array binding signal (z-score)", "setting": "[21]", "result": -0.061},
      {"measurement": "glycan array binding signal (z-score)", "setting": "[22]", "result": -0.028},
      {"measurement": "glycan array binding signal (z-score)", "setting": "[23]", "result": -0.071},
      {"measurement": "glycan array binding signal (z-score)", "setting": "[24]", "result": -0.021},
      {"measurement": "glycan array binding signal (z-score)", "setting": "[25]", "result": -0.045},
      {"measurement": "glycan array binding signal (z-score)", "setting": "[26]", "result": -0.083},
      {"measurement": "glycan array binding signal (z-score)", "setting": "[27]", "result": -0.055},
      {"measurement": "glycan array binding signal (z-score)", "setting": "[28]", "result": -0.001},
      {"measurement": "glycan array binding signal (z-score)", "setting": "[29]", "result": -0.047},
      {"measurement": "glycan array binding signal (z-score)", "setting": "[30]", "result": -0.028}
    ]}
  ]
}
